The record followed here is article PMC4336329 (PLoS ONE, 2015).

Structures are written as SMILES. The campaign covered roughly 310,000 compounds. About 2,200 (0.71%) showed an effect of 50% or more. The effect is printed as a negative number. This is one part of the list.

In this assay the target is human ether-à-go-go-related gene (hERG) potassium channel (human, UniProt Q12809). As to the kind of experiment: primary screen, population patch clamp on CHO cells stably expressing hERG.
human ether-à-go-go-related gene (hERG) potassium channel, sequence (Q12809 whole entry, looked up): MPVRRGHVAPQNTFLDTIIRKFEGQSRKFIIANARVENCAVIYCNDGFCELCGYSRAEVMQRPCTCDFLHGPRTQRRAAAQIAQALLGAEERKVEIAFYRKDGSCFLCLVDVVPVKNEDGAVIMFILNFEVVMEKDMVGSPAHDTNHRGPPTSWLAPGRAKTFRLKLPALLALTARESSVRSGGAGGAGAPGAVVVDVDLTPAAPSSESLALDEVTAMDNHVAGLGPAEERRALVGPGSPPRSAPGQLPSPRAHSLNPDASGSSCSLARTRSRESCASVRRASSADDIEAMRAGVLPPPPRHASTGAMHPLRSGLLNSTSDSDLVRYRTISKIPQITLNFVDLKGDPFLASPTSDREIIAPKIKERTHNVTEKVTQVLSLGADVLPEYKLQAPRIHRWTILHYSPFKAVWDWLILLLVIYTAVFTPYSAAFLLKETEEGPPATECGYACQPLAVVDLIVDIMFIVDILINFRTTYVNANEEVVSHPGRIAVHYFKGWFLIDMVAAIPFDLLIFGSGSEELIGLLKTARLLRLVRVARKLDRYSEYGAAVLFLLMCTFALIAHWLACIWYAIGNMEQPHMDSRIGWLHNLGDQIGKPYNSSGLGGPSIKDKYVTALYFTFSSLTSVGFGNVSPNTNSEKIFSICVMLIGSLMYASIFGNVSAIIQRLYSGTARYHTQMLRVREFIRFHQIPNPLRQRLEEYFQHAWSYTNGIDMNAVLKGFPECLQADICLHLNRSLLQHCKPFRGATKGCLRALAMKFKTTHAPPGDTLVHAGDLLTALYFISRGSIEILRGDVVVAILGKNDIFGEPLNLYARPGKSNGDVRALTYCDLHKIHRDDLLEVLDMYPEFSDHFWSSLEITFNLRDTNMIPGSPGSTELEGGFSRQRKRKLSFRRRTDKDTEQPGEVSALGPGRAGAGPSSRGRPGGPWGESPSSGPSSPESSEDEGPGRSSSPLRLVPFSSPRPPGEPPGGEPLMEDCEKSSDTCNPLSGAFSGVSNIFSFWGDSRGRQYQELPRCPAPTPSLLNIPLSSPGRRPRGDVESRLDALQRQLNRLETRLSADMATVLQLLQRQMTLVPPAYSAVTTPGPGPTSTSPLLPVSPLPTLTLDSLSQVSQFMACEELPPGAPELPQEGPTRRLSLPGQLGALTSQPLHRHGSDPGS
On to `CN(Cc1nccn1C)C(=O)CC1C(=O)NCCN1CC(c1ccccc1)c1ccccc1` (centres unmarked), for which the “hERG current change (%, negative = inhibition) at 1uM” value stood at 3.86%.
With `CN(C)c1nc2ccccc2c(N)c1-c1ccccc1.O=C(O)C(=O)O` the figure was -39.7%; with `COc1ccccc1CC1CC(=O)N(c2ccccc2)C1=O` (centres unmarked), 10.8%.
In the case of `COCC(=O)OCC(=O)Nc1cc(C)c(C)cc1[N+](=O)[O-]` it was 5.93%; in that of `Cc1cccn2c(=O)c3cc(C(=O)NCC4CCCO4)c(=N)n(CC4CCCO4)c3nc12` (centres unmarked), -84.8%; in that of `COc1ccc(OC(C)C(=O)NCCC2=CCCCC2)cc1` (centres unmarked), 11.6%.
With `COC(C/C=C/[C@H](O)[C@H](C)OCc1ccccc1)OC` the figure was 12%; with `COc1cccc(C(=O)Nc2c3c(nc4c2CCC4)CCCC3)c1`, 2.65%; with `COc1ccc2[nH]c3c(c2c1)CCNC3`, 13%.
Regarding `COc1ccc(-n2c(C(C)n3nc(C)c([N+](=O)[O-])c3C)n[nH]c2=S)cc1` (centres unmarked), the “hERG current change (%, negative = inhibition) at 1uM” value was found to be 11%.
In the case of `CCN(CC)S(=O)(=O)c1cc([N+](=O)[O-])ccc1N=Nc1c(O)[nH]c2ccccc12` it was 9.04%; in that of `O=C(Cc1ccccc1)Nc1nc(-c2ccc(F)c(F)c2)cs1`, 17.8%.
With `COc1ccc(OC)c(CN(CCCN2CCOCC2)C(=O)Nc2ccccc2)c1` the figure was 0.0247%.
In the case of `CC(=O)Oc1ccc2occ(/C=N/c3cc(=O)[nH]c(=S)[nH]3)c(=O)c2c1` it was 17.5%; in that of `CCCCN(C(=O)c1ccc2c(c1)NC(=O)CS2)c1ccccc1`, -2.71%.
As for `COCc1nnc(NC(=O)C2CC(=O)N(CCc3ccc(F)cc3)C2)s1` (centres unmarked), the “hERG current change (%, negative = inhibition) at 1uM” value is on record as 17.4%.
`COc1ccc(OC)c(C(=O)c2coc3ccc(O)c(CN4CCOCC4)c23)c1`: the “hERG current change (%, negative = inhibition) at 1uM” value is -6.28%.
Consider `CCCN(CC(=O)Nc1ccccc1C)C(=O)c1ccc(C(=O)c2ccccc2)cc1`, for which the “hERG current change (%, negative = inhibition) at 1uM” value is 15.5%.
In the case of `CCC1CO/C(=C(\C(Cl)=C(Cl)Cl)[N+](=O)[O-])N1Cc1ccc(Cl)nc1` (centres unmarked), the “hERG current change (%, negative = inhibition) at 1uM” value is on record as -18.5%.
With `CCN(CC)CCN1C(=O)C(=O)/C(=C(/O)c2ccccc2)C1c1ccccc1F` (centres unmarked) the figure was 10.9%; with `Cc1ccc(C2=NN(CC(=O)NCCN(C)C)C(=O)CC2)cc1`, -3.05%.
In the case of `S=C(NC1CCCCC1)NC1CC2C=CC1C2` (centres unmarked) it was 10.8%.
With `O=S(=O)(c1ccccc1)c1nc(Nc2cccc(O)c2)sc1Cl` the figure was -1.32%; with `CCCn1nnnc1SCC(=O)NCc1cccs1`, 7.16%.
Consider `COc1cccc(CNCCc2ccccc2)c1OC.Cl`, for which the “hERG current change (%, negative = inhibition) at 1uM” value turned out to be 12.3%.
With `CNc1ccccc(C(=O)/C=C/c2ccccc2OC)c1=O` the figure was 9.23%; with `C=CCN1C(=O)N/C(=C/c2ccccc2OCC(=O)Nc2ccc(F)cc2)C1=O`, 0.196%; with `Cc1ccc(SCCC(=O)OCC(=O)Nc2ncc(Cl)cc2Cl)cc1`, -0.748%.
In the case of `COCCN(C(=O)CCC(=O)Nc1cccnc1)C(C(=O)NC1CCCCC1)c1ccccc1` (centres unmarked) it was 2.11%.
In the case of `COC(=O)N/N=C(\C)c1ccc2ccccc2c1OC(F)F` it was 14.8%.
On to `CCN(CC)S(=O)(=O)c1ccc(C(=O)NNC(=O)C2CCN(S(=O)(=O)c3ccc(Cl)cc3)CC2)cc1`, for which the “hERG current change (%, negative = inhibition) at 1uM” value was 2.1%.
With `Cc1ccccc1NS(=O)(=O)c1ccc2c(c1)NC(=O)CCS2` the figure was 9.65%; with `CCC(C)(C)n1nnnc1CN(Cc1cc2cc(OC)ccc2[nH]c1=O)C1CCCC1`, 3.27%; with `COC(=O)c1ccc(OC(=O)CCN2C(=O)C3CCCCC3C2=O)cc1` (centres unmarked), 2.26%.
In the case of `O=C1NC(=O)N(Cc2ccccc2)C(=O)/C1=C/c1cnn(-c2ccccc2)c1` it was 5.55%; in that of `O=C(NC1(C(F)(F)F)NC(=O)N(c2ccccc2)C1=O)c1cccs1` (centres unmarked), 5.42%.
With `CCOC(=O)C1CCN(S(=O)(=O)c2ccc3c4c2CC(=O)N4CC(C)S3)CC1` (centres unmarked) the figure was 1.26%; with `c1csc(-c2nc(-c3ccc(-c4ccon4)s3)no2)c1`, 14.9%.
In the case of `COc1ccc(-c2cc3nc(-c4ccccc4)cc(N4CCC5(CC4)OCCO5)n3n2)cc1`, the “hERG current change (%, negative = inhibition) at 1uM” value is on record as 12.9%.
For the compound `Cc1ccc(C(=O)Nc2ncccc2S(=O)(=O)c2ccccc2)cc1`, the “hERG current change (%, negative = inhibition) at 1uM” value was determined as 8.09%.
With `CC1(C(=O)Nc2cccc(C(F)(F)F)c2)CO1` (centres unmarked) the figure was 22.6%.
With `O=[N+]([O-])c1cc(C(F)(F)F)ccc1NCCOc1ccccc1` the figure was -0.92%.
With `CCOc1ccc2nc(NC(=O)CSc3ccc(Cl)cc3)sc2c1`, the “hERG current change (%, negative = inhibition) at 1uM” value was 15.3%.
With `Cc1ccc(NC(=O)c2ccccc2F)c(NC(=O)c2ccccc2F)c1` the figure was 8.6%.
